To fix the notation:
B1: Caulobacter ParB omega fusion; a variant is named by its letters at X, in order, B8GW30 (parent)
chain: MESVVVGEPGMSEGRRGLGRGLSALLGEVDAAPAQAPGEQLGGSREAPIEILQRNPDQPRRTFREEDLEDLSNSIREKGVLQPILVRPSPDTAGEYQIVAGERAWRAAQRAGLKTVPIMVRELDDLAVLEIGIIENVQRADLNVLEEALSYKVLMEKFERTQENIAQTIGKSXSHVANXMRLLXLPDEVQSYLVSGELTAXHARAIAAAADPVALAKQIIEGGLSVRETEALARKAPNLSAGKSKGGRPPRVKDTDTQALESDLSSVLGLDVSIDHRGSTGTLTITYATLEQLDDLCNRLTRGI

Over roughly 81,000 sequences, “one-hybrid fitness for binding parS DNA” has its median near -0.17; the highest 2% begin near 0.51. This is one part of the list.

The assay covers variants of B1. Put plainly: one-hybrid fitness for binding parS DNA (scaled: cognate 1, non-cognate 0); higher = stronger binding. To be noted: with parS DNA site. Put shortly:
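On M9-minus-histidine containing 0.1 mM IPTG and 5 mM 3-AT, E. coli USO cells with a HIS3 reporter, site 19 bp from the promoter, grew 48 hours at 37°C to select Caulobacter ParB libraries randomised at four specificity codons. Plasmids from before and after were Illumina-sequenced, with three replicate libraries pooled and variants under 10 reads left out. Fitness is the log change in variant-to-wild-type read ratio, rescaled against cognate and non-cognate.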
In the case of NMLS, the “one-hybrid fitness for binding parS DNA” value is at most 0.2.
As for IIDV, the figure is at most 0.2.
With LMAG the figure was at most 0.2.
With DLLC, the “one-hybrid fitness for binding parS DNA” value is at most 0.2.
As for KYKY, the figure is at most 0.2; as for ACCE, at most 0.2.
With CRGS the figure was at most 0.2.
In the case of HMPR, the “one-hybrid fitness for binding parS DNA” value was at most 0.2.
With CDAR the figure was at most 0.2; with YAQC, at most 0.2.
Regarding QFKG, the “one-hybrid fitness for binding parS DNA” value was at most 0.2.
With KRIF the figure was at most 0.2; with DPSC, at most 0.2; with GSTT, at most 0.2.
Consider SMDY, for which the “one-hybrid fitness for binding parS DNA” value was at most 0.2.
With KQCS the figure was at most 0.2.
With EGSH the figure was at most 0.2; with GAYY, at most 0.2; with EDEL, at most 0.2.
As for FLQT, the figure is at most 0.2; as for RHII, at most 0.2.
Take ANYW: the “one-hybrid fitness for binding parS DNA” value was at most 0.2.
With QHRT the figure was at most 0.2.
With AAHT the figure was at most 0.2; with WSTE, at most 0.2.
In the case of ALLM, the “one-hybrid fitness for binding parS DNA” value is at most 0.2.
As for CTNM, the figure is at most 0.2; as for IGET, at most 0.2.
As for RFYQ, the figure is at most 0.2.
As for SEDC, the “one-hybrid fitness for binding parS DNA” value is at most 0.2.
As for DRDG, the “one-hybrid fitness for binding parS DNA” value was at most 0.2.
With HCDP the figure was at most 0.2.
With KPQG the figure was at most 0.2; with RQHD, at most 0.2; with NSTY, at most 0.2.
As for CAIR, the figure is at most 0.2.
As for YTNK, the “one-hybrid fitness for binding parS DNA” value was at most 0.2.
With TNII the figure was at most 0.2; with CPLL, at most 0.2.
As for RWNE, the figure is at most 0.2; as for RFPH, at most 0.2.
As to QKMG, the “one-hybrid fitness for binding parS DNA” value is at most 0.2.
NDVN: the “one-hybrid fitness for binding parS DNA” value was at most 0.2.
With TPPH the figure was at most 0.2.
For the variant KTSL, the “one-hybrid fitness for binding parS DNA” value is at most 0.2.
As for QCHP, the figure is at most 0.2.
As for IDKA, the figure is at most 0.2; as for MMQS, at most 0.2.
With SPNM the figure was at most 0.2.

The record behind these values is a collection of fitness landscapes (doi:10.1016/j.celrep.2020.107928).
